The other results are listed elsewhere or left out. The list includes weakly bound sequences.

The target in this test is MaxL homodimer (UniProt P61244). As to the kind of experiment: universal protein-binding microarray (PBM). The settings on record: PBS-based mixture, 10 nM His-tagged protein dimer, 2% milk, 200 ng/uL BSA, 50 ng/uL salmon testes DNA, 0.02% TX-100; detection with Alexa 488 anti-His …; high values mean tight binding; most listed sequences are background and not binding sites; double strand, one strand shown.
UniProt P61244, sequence (P61244 whole entry): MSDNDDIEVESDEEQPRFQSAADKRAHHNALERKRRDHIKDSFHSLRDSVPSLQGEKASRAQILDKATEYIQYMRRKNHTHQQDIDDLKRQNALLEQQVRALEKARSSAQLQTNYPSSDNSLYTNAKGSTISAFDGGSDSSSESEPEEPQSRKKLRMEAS
Take TCCGGCGA: the binding signal (normalized occupancy) worked out at 0.069.

As to ACTGCGGA, the binding signal (normalized occupancy) was 0.0741.

GCCTTAGC: the binding signal (normalized occupancy) worked out at 0.068.

In the case of CCTTGAGA, the binding signal (normalized occupancy) turned out to be 0.078.

Consider GCTACAAA, for which the binding signal (normalized occupancy) is 0.0741.

In the case of GCGCCAAA, the binding signal (normalized occupancy) is 0.0715.

Consider GCCAAACC, for which the binding signal (normalized occupancy) worked out at 0.0702.

As for CAATTGGG, the binding signal (normalized occupancy) was found to be 0.0733.

In the case of GGCCGATA, the binding signal (normalized occupancy) amounted to 0.0714.

For AGACGTAA, the binding signal (normalized occupancy) stood at 0.0714.

For CAAGGTGA, the binding signal (normalized occupancy) was found to be 0.0747.

As for AACCAATA, the binding signal (normalized occupancy) worked out at 0.0723.

As to GCCCGACC, the binding signal (normalized occupancy) amounted to 0.0665.

For GCCCGAAC, the binding signal (normalized occupancy) was 0.0641.

Regarding AATGACTA, the binding signal (normalized occupancy) came to 0.077.

For ATAAATTC, the binding signal (normalized occupancy) stood at 0.0741.

In the case of AGGAAGAT, the binding signal (normalized occupancy) came to 0.0741.

Regarding AGACGTGG, the binding signal (normalized occupancy) worked out at 0.0819.

Consider AACTAAGG, for which the binding signal (normalized occupancy) stood at 0.0696.

As to CACTATAG, the binding signal (normalized occupancy) turned out to be 0.0785.

On to AGTATAGC, for which the binding signal (normalized occupancy) turned out to be 0.0769.

Take AATGGCAG: the binding signal (normalized occupancy) is 0.0712.

GACCCAAA: the binding signal (normalized occupancy) was 0.071.

For the sequence CCTCACCC, the binding signal (normalized occupancy) is 0.0818.

For GCTCTGGA, the binding signal (normalized occupancy) was found to be 0.0718.

Turning to AGGAAATG, the binding signal (normalized occupancy) was 0.0748.

For ACAACGGA, the binding signal (normalized occupancy) was 0.073.

In the case of GCCACCCC, the binding signal (normalized occupancy) came to 0.0827.

As for CCACATTC, the binding signal (normalized occupancy) amounted to 0.0852.

Consider AGAAGATA, for which the binding signal (normalized occupancy) was determined as 0.0794.

With GGGGGACC, the binding signal (normalized occupancy) was 0.0757.

As to GCCGTCGA, the binding signal (normalized occupancy) turned out to be 0.0722.

Turning to AGCCCTTA, the binding signal (normalized occupancy) is 0.0705.

GATGGTCC: the binding signal (normalized occupancy) stood at 0.0777.

As to AACAGAGT, the binding signal (normalized occupancy) is 0.073.

In the case of TAATTCTA, the binding signal (normalized occupancy) is 0.0766.

With CCCATAGG, the binding signal (normalized occupancy) was 0.0735.

As to ACAACCAT, the binding signal (normalized occupancy) came out at 0.0846.

Turning to TCATGGAA, the binding signal (normalized occupancy) is 0.084.

Regarding TGTTTTAA, the binding signal (normalized occupancy) was 0.0739.

Turning to ATGCCCTA, the binding signal (normalized occupancy) worked out at 0.0836.

As for GAGACAGC, the binding signal (normalized occupancy) came to 0.0726.

For the sequence ATGAAGCA, the binding signal (normalized occupancy) stood at 0.082.

Turning to CCCTTAAG, the binding signal (normalized occupancy) was 0.0704.

With ATTCAAGC, the binding signal (normalized occupancy) is 0.0775.

With GAAGCGGC, the binding signal (normalized occupancy) was found to be 0.0715.

ATATAAGG: the binding signal (normalized occupancy) is 0.0767.

Consider ACACCCCT, for which the binding signal (normalized occupancy) amounted to 0.0822.

For TTAGCGAA, the binding signal (normalized occupancy) is 0.0758.

Turning to AATGAAAT, the binding signal (normalized occupancy) stood at 0.0744.

For the sequence GGGTTGAC, the binding signal (normalized occupancy) was 0.0676.

GTCGGCAC: the binding signal (normalized occupancy) turned out to be 0.0745.

As to ACGGCGCC, the binding signal (normalized occupancy) was found to be 0.0713.

As to TTCTTAAA, the binding signal (normalized occupancy) stood at 0.0712.

With CCTAATAC, the binding signal (normalized occupancy) turned out to be 0.0788.

Regarding AGCCAACG, the binding signal (normalized occupancy) is 0.0691.

With AGCGGTTC, the binding signal (normalized occupancy) worked out at 0.0674.

Consider ACCACCCT, for which the binding signal (normalized occupancy) came to 0.0783.

As to ATCTGGCC, the binding signal (normalized occupancy) was found to be 0.072.

As for ATTGTATA, the binding signal (normalized occupancy) turned out to be 0.0832.

Take TCAGCTCA: the binding signal (normalized occupancy) was determined as 0.0679.

As for CGACAAGC, the binding signal (normalized occupancy) came out at 0.0728.

Consider AGACGTGA, for which the binding signal (normalized occupancy) was 0.0821.

For the sequence GTTAGATA, the binding signal (normalized occupancy) is 0.0808.

On to AATCTTCT, for which the binding signal (normalized occupancy) is 0.0733.

For GTCAGTGA, the binding signal (normalized occupancy) worked out at 0.0739.

For GAGTAACC, the binding signal (normalized occupancy) came to 0.0745.

In the case of GGTAACAC, the binding signal (normalized occupancy) amounted to 0.0726.

On to CTTTGGTC, for which the binding signal (normalized occupancy) was found to be 0.0713.

As to CCGCCACA, the binding signal (normalized occupancy) is 0.0785.

In the case of CCCCCAAA, the binding signal (normalized occupancy) was 0.072.

For AAGCAACC, the binding signal (normalized occupancy) was 0.0724.

For GAGTGCTA, the binding signal (normalized occupancy) is 0.0794.

As to TCCTTTCA, the binding signal (normalized occupancy) turned out to be 0.076.

CCAATGTA: the binding signal (normalized occupancy) was determined as 0.0844.

As to CGTTCCAC, the binding signal (normalized occupancy) worked out at 0.0724.

In the case of GAGAGCGC, the binding signal (normalized occupancy) was 0.0702.

CGGAATGC: the binding signal (normalized occupancy) is 0.0732.

With GCGACGCC, the binding signal (normalized occupancy) was 0.0709.

For the sequence GAACGCAA, the binding signal (normalized occupancy) was found to be 0.0728.

For ACTGTCAG, the binding signal (normalized occupancy) amounted to 0.0748.

AATCGCAT: the binding signal (normalized occupancy) was determined as 0.0786.

With AACCTCCT, the binding signal (normalized occupancy) turned out to be 0.0812.

Take AATGACGA: the binding signal (normalized occupancy) is 0.0747.

Turning to CGGGGTAA, the binding signal (normalized occupancy) amounted to 0.0797.

With TAAGATAA, the binding signal (normalized occupancy) came to 0.0765.

Take AGAGGAAT: the binding signal (normalized occupancy) was 0.074.

For CTAAGCTC, the binding signal (normalized occupancy) turned out to be 0.0711.

With CGCTAATA, the binding signal (normalized occupancy) is 0.0765.

Turning to GCGAACTA, the binding signal (normalized occupancy) came to 0.0739.

On to CTGCGCGA, for which the binding signal (normalized occupancy) came out at 0.0685.

In the case of GTGGGCCA, the binding signal (normalized occupancy) was 0.0752.

Regarding GAGCCACC, the binding signal (normalized occupancy) stood at 0.0778.

Take CCAACATA: the binding signal (normalized occupancy) was found to be 0.0775.

Take AGGGAAGA: the binding signal (normalized occupancy) was determined as 0.0706.

For GAGTAAGA, the binding signal (normalized occupancy) amounted to 0.0744.

Take GTTGCAGA: the binding signal (normalized occupancy) is 0.0724.

Consider CGTTGTGC, for which the binding signal (normalized occupancy) was 0.0779.

With CCCTGGGC, the binding signal (normalized occupancy) was 0.0692.

With CCAATACA, the binding signal (normalized occupancy) came to 0.0809.

As for AGGTATCG, the binding signal (normalized occupancy) amounted to 0.0777.

Consider GTCAACCA, for which the binding signal (normalized occupancy) is 0.0779.

With AATGGCCT, the binding signal (normalized occupancy) stood at 0.0699.

Turning to AGAGACTA, the binding signal (normalized occupancy) was determined as 0.0745.

Consider CGCACGCG, for which the binding signal (normalized occupancy) was determined as 0.121.

As for AGACTCTG, the binding signal (normalized occupancy) is 0.0648.

In the case of CACCACAA, the binding signal (normalized occupancy) is 0.0795.

AATAAGTG: the binding signal (normalized occupancy) stood at 0.0764.

Take GCCTCGGA: the binding signal (normalized occupancy) was determined as 0.0704.

Source of the values: paper PMC4242493.
